Laboratory results as given in a collection of fitness landscapes (doi:10.1016/j.celrep.2020.107928).
Over roughly 81,000 sequences, “one-hybrid fitness for binding NBS DNA” has its median near -0.1; the highest 2% begin near 0.36. The list shows a part of the results.

B1: Caulobacter ParB omega fusion; a variant is named by its letters at X, in order, B8GW30 (parent)
chain: MESVVVGEPGMSEGRRGLGRGLSALLGEVDAAPAQAPGEQLGGSREAPIEILQRNPDQPRRTFREEDLEDLSNSIREKGVLQPILVRPSPDTAGEYQIVAGERAWRAAQRAGLKTVPIMVRELDDLAVLEIGIIENVQRADLNVLEEALSYKVLMEKFERTQENIAQTIGKSXSHVANXMRLLXLPDEVQSYLVSGELTAXHARAIAAAADPVALAKQIIEGGLSVRETEALARKAPNLSAGKSKGGRPPRVKDTDTQALESDLSSVLGLDVSIDHRGSTGTLTITYATLEQLDDLCNRLTRGI

Variants of: B1
Assay: one-hybrid fitness for binding NBS DNA (the Noc-binding site; scaled: cognate 1, non-cognate 0); higher = stronger binding
Conditions: with NBS DNA site
Summary of the method: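 Fitness is the rescaled log change in variant-to-wild-type read ratio, measured by Illumina sequencing of plasmids before and after bacterial one-hybrid selection. The scale puts cognate at 1 and non-cognate at 0. Selection of Caulobacter ParB libraries, four specificity codons randomised, took place in E. coli USO with a HIS3 reporter, site 19 bp from the promoter, over 48 hours at 37°C on M9-minus-histidine with 0.1 mM IPTG and 5 mM 3-AT.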

one-hybrid fitness for binding NBS DNA, 0.27:
HNRT

one-hybrid fitness for binding NBS DNA, 0.282:
QMVS

one-hybrid fitness for binding NBS DNA, 0.203:
QRYW

one-hybrid fitness for binding NBS DNA, 0.212:
PQRR

one-hybrid fitness for binding NBS DNA, 0.252:
QLRG

one-hybrid fitness for binding NBS DNA, 0.431:
RMLR

one-hybrid fitness for binding NBS DNA, 0.266:
QKKW

one-hybrid fitness for binding NBS DNA, ≤ 0.2:
CSPK
QWYY
SLPG
ELAF
HINN
GMTR
WFQF
QKDC
SFET
TNSS
IVTT
SANY
KTDV
DLLD
HIWG
CKYC
GTPC
GTTY
SPCF
LYSR
TEWS
PMGY
KVQG
NCSE
YTAY
QQDC
KPET
GESD
ARTG
CTHG
SHVD
AKLN
MAKD
AINP
MYHL
CGNA
MSWS
RWYM
VRVG
CPPK
QVDF
PPIT
ISGL
QMQQ
TDDM
TWNG
MPYR
EHLR
LWNS
ITWG
RSSM
HQLC
KFTT
QFPA
INLF
LHGL
SHAL
WIPV
RYIS
ETLT
YSVG
PWGR
NDCR
EFPA
HPHR
WIGV
HLCF
CSKV
RGVC
MQNF
KYKC
YVSC
QSHM
VTSP
WDKC
ERIT
GYER
EAIP
HAVF
TCKI
QRVD
HDTA
SNLD
VNRR
HPVF
TRWA
CVHT
VEKL
PQTN
LMYR
IGKT
GRSL
KHLG
CPIR
PATS
WGTS
ISML
NFTC
ERDI
ARMV
TSWM
AWGR
GSKC
LYIP
LQKM
RGFQ
YEAC
RHYK
NNIR
ISKG
PRWE
HRWR
QPNH
KTDK
MRLG
LTQL
CQIS
DIQS
RNKD
DVQC
TFRH
ESKG
DYPR
PDYG
REIA
SWDS
FSIY
RYWM
KWHG
STYW
WQLT
DLDD
GCPF
VREG
TTGG
RETG
RSQN
HMWG
PYLC
QPLV
CSYD
YQWS
VRSK
PVAF
YCQR
THQS
KSIF
KNTI
YEYR
ICVT
NLHY
VQGF
QCNP
VNQR
GLRP
VVRW
VTNT
INRE
RCII
RERR
PGKF
WMYG
KQAL
GPPN
RFDV
ITRA
RKCW
PTRQ
QESR
RYQN
LNDN
DVSE
TIFK
AEHR
WGGS
GPIE
IYKM
SQNC
SCCG
NGNA
RLTK
QRFD
DEPW
VMAH
LRIA
VSMP
CCPG
SQQN
RTPM
FMDL
FNRV
KNHT
NDRG
FAAV
NSSA
TNWR
YRTA
TMRY
CQNS
VMQG
RECR
CDLS
QACY
SLPH
PLSC
RCAL
PCTQ
PMPS
SWPR
DTPC
PAMC
TPNR
IHRT
ITVG
TLIW
SYVS
LDTW
GSMY
TDHL
KRGF
SKDT
QHNL
MKTR
GMCE
ACCP
IRKW
RPCI
RNQN
NVWL
HNTM
TACC
PNKR
PNDH
FVQC
QQVL
RPRE
AGSL
CLVM
HFKK
TSAA
QHED
DDAT
RSQI
QNSL
HGQW
TLVP
LLFA
PNPS
CYYG
GTKA
ESHS
FRWL
LMSL
DACT
AMTV
ETGR
TTTW
DRYK
SADH
RYGM
PINP
SSFT
RFLS
HQQY
LGRE
KAAG
LFPG
AAPP
DDLS
DFLT
DRRP
ITQG
YNRP
HAGT
RMPR
RITP
NWPR
TSVG
LWTE
MVEG
EGVC
RWWM
LYAM
YRMS
SVID
TDTW
QQIK
QAHG
KVEY
FTHK
QDYT
EDQS

one-hybrid fitness for binding NBS DNA, 0.433:
RMTS

one-hybrid fitness for binding NBS DNA, 0.221:
QLWS

one-hybrid fitness for binding NBS DNA, 0.205:
QIIT

one-hybrid fitness for binding NBS DNA, 0.351:
QIKA

one-hybrid fitness for binding NBS DNA, 0.337:
QKKI

one-hybrid fitness for binding NBS DNA, 0.235:
RMKV

one-hybrid fitness for binding NBS DNA, 0.372:
RYCT
